Measurements from publication PMC4336329 (PLoS ONE, 2015).
Screen size: about 310,000 compounds; about 2,200 (0.71%) showed an effect of 50% or more. Effects have a minus sign here. Some of the results follow.

Biological target: human ether-à-go-go-related gene (hERG) potassium channel (human, UniProt Q12809)
Assay: primary screen, population patch clamp on CHO cells stably expressing hERG

human ether-à-go-go-related gene (hERG) potassium channel, sequence (Q12809 whole entry, looked up): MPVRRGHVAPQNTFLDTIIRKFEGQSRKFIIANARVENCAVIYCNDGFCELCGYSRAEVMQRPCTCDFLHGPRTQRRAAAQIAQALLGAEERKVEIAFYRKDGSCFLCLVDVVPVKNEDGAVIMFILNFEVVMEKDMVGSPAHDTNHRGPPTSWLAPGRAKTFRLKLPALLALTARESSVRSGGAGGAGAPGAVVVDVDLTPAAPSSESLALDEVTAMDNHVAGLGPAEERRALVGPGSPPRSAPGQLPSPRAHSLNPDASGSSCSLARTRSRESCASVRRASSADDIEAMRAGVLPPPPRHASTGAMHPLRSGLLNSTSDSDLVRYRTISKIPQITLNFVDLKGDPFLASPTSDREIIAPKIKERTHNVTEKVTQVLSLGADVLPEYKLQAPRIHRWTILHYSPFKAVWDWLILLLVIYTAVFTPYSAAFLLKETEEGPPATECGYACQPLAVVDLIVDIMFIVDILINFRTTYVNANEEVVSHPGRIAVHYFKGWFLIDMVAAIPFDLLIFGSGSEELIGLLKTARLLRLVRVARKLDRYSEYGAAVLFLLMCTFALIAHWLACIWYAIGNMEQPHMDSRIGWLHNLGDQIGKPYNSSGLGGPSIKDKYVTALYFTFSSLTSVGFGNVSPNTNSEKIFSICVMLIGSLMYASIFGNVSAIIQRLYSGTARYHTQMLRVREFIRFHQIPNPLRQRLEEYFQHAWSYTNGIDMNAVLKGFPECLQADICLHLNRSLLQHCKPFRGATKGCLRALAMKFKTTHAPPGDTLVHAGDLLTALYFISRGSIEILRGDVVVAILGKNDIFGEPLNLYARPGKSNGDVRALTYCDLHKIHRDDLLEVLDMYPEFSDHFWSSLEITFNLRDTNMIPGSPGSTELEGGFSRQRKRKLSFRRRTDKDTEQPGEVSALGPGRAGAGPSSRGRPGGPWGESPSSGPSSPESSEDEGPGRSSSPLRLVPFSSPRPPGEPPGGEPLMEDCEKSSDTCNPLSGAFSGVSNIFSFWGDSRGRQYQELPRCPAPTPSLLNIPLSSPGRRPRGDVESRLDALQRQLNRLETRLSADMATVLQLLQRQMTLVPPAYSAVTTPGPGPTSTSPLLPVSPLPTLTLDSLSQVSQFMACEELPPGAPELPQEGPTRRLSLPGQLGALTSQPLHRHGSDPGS

Row | Structure (SMILES) | hERG current change (%, negative = inhibition) at 1uM [%]
1 | Cc1ccc(C(NC(=O)N2CCCC2)C(Cl)Cl)cc1F (stereo not drawn) | -7.77
2 | COc1ccc(OC)c(NC(=O)c2nnn(CC(=O)Nc3ccc4c(c3)OCO4)c2N)c1 | 12.7
3 | CCn1c(NC)cc(=O)n(C)c1=O | 13.9
4 | CC(=O)Nc1ccc(NC(=O)CN2CCN(c3ccccn3)CC2)cc1 | 11.7
5 | COc1ccc(S(=O)(=O)N(C(=O)c2ccncc2)c2ccc3oc4c(c3c2)CCCC4)cc1 | 5.33
6 | O=C1c2ccccc2C2=Nc3ccccc3SC(c3ccc(Cl)cc3)C12 (stereo not drawn) | 10.9
7 | Cc1ccccc1C(=O)N/N=C1/SCC(=O)N1Cc1ccccc1 | -1.25
8 | Cc1cc2c3c(c1C)C(=O)C(=O)N3C(C)(C)CC2C (stereo not drawn) | 9.63
9 | CC(=O)c1ccccc1NC(=O)COC(=O)/C=C/c1ccc(OC(F)F)cc1 | 16
10 | O=C(Cc1ccc(Cl)cc1)Nc1ccc(S(=O)(=O)Nc2cnc3ccccc3n2)cc1 | 17.3
11 | Cc1ccccc1NC1=C(Cl)C(=O)N(C2CCCCC2)C1=O | 4.73
12 | Cc1ccccc1C(=O)N1CCN(c2ccc(NC(=O)Cc3ccccc3)cc2)CC1 | 5.03
13 | Cc1ccccc1Nc1nnc(SCC2CCCCO2)s1 (stereo not drawn) | 4.14
14 | Nc1c(C(=O)N2CCOCC2)sc2nc3c(cc12)CCC3 | 6.1
15 | Cc1cccc(OCCSc2ncnc3nc[nH]c23)c1 | 16.8
16 | CCC(=O)N1c2ccc(S(=O)(=O)CCC(=O)N3CCn4c3nc3ccccc34)cc2CC1C (stereo not drawn) | 9.5
17 | Cc1sc(NC(=O)c2cc(-c3ccccc3)nc3ccccc23)c(C(N)=O)c1C | 14.6
18 | O=c1[nH]c2ccc(Cl)cc2c(-c2ccccc2)c1N1CCN(CCO)CC1 | -43
19 | CCOc1ccc(NC(=S)N2CCCN(Cc3cc(C)ccc3C)C2)cc1 | -7.88
20 | COc1ccc(N(CC(=O)NC2CCCC2)C(=O)CCC(=O)Nc2cc(C)on2)c(OC)c1 | 3.62
21 | O=C(O)CCc1ccc(-c2ccc(Br)cc2)n1NC(=O)c1ccc([N+](=O)[O-])cc1 | 17.6
22 | COc1ccc(Br)cc1/C=N/n1c(C)nnc1C | 6.84

Row | Structure (SMILES) | hERG current change (%, negative = inhibition) at 1uM [%]
23 | O=C(NCc1ccco1)c1cc2sccc2n1Cc1ccccc1 | -6.25
24 | CCOC(=O)CSc1nnc(-c2cccc(Br)c2)o1 | 12.9
25 | COc1ccc(OCCNc2cc(N3CCCCC3)ccc2[N+](=O)[O-])cc1 | 8.72
26 | Cc1nnc(SC(C(=O)Nc2ccc(Cl)c([N+](=O)[O-])c2)c2ccccc2)[nH]c1=O (stereo not drawn) | 14.6
27 | COc1cccc(OC)c1C(=O)Nc1ccc(S(=O)(=O)Nc2ncccn2)cc1 | 4.77
28 | Cc1ccc2cc(CCNC(=O)C(C)(C)C)c(=O)[nH]c2c1 | 11.6
29 | c1cncc(-c2nnc(-c3ccco3)o2)c1 | 9.24
30 | COc1ccccc1C(=O)NCC(=O)Nc1cccnc1 | 15.6
31 | Cc1cc(Cl)c(O)c(-n2nc3ccccc3n2)c1 | 1.03
32 | O=[N+]([O-])c1cccc(CSc2ncnc3ccccc23)c1 | 14.6
33 | CCOC(=O)C1CCN(C(=O)C(CCSC)NC(=O)COc2ccccc2)CC1 (stereo not drawn) | -11
34 | Cc1ccc(Cn2nnc3c(=O)n(CC(=O)c4ccccc4)cnc32)cc1 | 6.59
35 | COCCCNC(=O)c1c(NC(=O)c2ccccc2Cl)n(Cc2ccccc2)c2nc3ccccc3nc12 | 10.5
36 | Cc1ccc(S(=O)(=O)NC2=NCN(C3CCCCC3)CN2)cc1 | 12.8
37 | Cc1ccc(CNC(=O)c2cc(-c3cc(C)cc(C)c3O)n[nH]2)cc1 | 1.75
38 | O=C(NC1CCOc2ccccc21)c1ccc(Cl)nc1 (stereo not drawn) | 11.9
39 | COc1ccc(C(=O)Nc2cccc(NC(=O)c3ccc(OC)c(OC)c3)n2)cc1OC | 11.1
40 | Cc1nc(-c2ccccc2)nc2n[nH]c(N)c12 | 13.3
41 | COc1cc(C(=O)Nn2cnnc2)ccc1OC(F)F | 14.8
42 | Cc1ccc(C(=O)N/C(=C/c2ccccc2)C(=O)NC(Cc2ccccc2)C(=O)O)cc1 (stereo not drawn) | 13.9
43 | COC(=O)c1ccc(CNC(=O)c2ccc(COc3ccccc3)cc2)cc1 | 8.6
44 | Cc1c(C(=O)Nc2nonc2-c2ccc(F)cc2)oc2ccc(F)cc12 | 12.1

Row | Structure (SMILES) | hERG current change (%, negative = inhibition) at 1uM [%]
45 | COc1ccc(-c2c(S(=O)(=O)c3ccccc3)cnn2-c2ccccc2)cc1 | 4.42
46 | Cc1ccccc1NC(=O)c1c(C)[nH]c(=S)c(C#N)c1-c1ccc(Cl)cc1 | 14.7
47 | CCOC(=O)c1csc(Nc2nc3ccc(F)cc3s2)n1 | 1.25
48 | CSc1ccc(CN(C)CC(=O)NC(C)c2ccccc2)cc1 (stereo not drawn) | -15.4
49 | COC(=O)c1ccccc1NC(=O)CN(CCc1ccccc1)S(C)(=O)=O | -3.14
50 | CN1CC(C(=O)c2ccc([N+](=O)[O-])cc2)C(c2ccc(Cl)cc2)C1 (stereo not drawn) | -77.1
51 | Nc1nc2nonc2nc1N | 6.3
52 | Cc1cc(NC(=O)CSc2nc3ccccc3c(=O)n2Cc2ccc(F)cc2)no1 | 11.7
53 | COc1ccc(/C=N/NC(=O)CN2CCN(Cc3ccccc3)CC2)cc1Br | -33.9
54 | COc1ccc2cc(S(=O)(=O)N3CCCC(C)C3)ccc2c1 (stereo not drawn) | 13.2
55 | CC(C)C1Nc2c(C(=O)[O-])cccc2C(Nc2ccccc2C(=O)[O-])C1(C)C.[K+] (stereo not drawn) | 6.86
56 | CCc1nnc(NC(=O)c2nn(-c3ccccc3)nc2C)s1 | 9.69
57 | Cc1nc2cccc(C(=O)NCc3ccccc3)c2o1 | 11.2
58 | CCOC(=O)C(NC(C)=O)(NS(=O)(=O)c1ccccc1)C(F)(F)F (stereo not drawn) | 14.7
59 | O=C(COc1ncnc2ccccc12)N1CCN(S(=O)(=O)c2ccccc2)CC1 | 13.1
60 | CS(=O)(=O)c1ccc(Cl)c(NC(=O)CCN2C(=O)C3CC=CCC3C2=O)c1 (stereo not drawn) | 12.5
61 | Cc1ccc(S(=O)(=O)CCc2nc3ccccc3s2)cc1C | 4.25
62 | C/C(=N/N=C/c1ccccc1O)c1ccccc1O | 19.2
63 | Cc1c(NC(=S)NC(=O)c2ccc(Cl)cc2)c(=O)n(-c2ccccc2)n1C | 3.81
64 | CCC(=O)Nc1cccc(NC(=O)c2ccc3c(c2)OCCO3)c1 | 8.27
65 | CN(C(=O)CSc1nc(-c2ccccc2)c(-c2ccccc2)o1)C1CCS(=O)(=O)C1 (stereo not drawn) | 3.1
66 | O=C(Cn1nc(-c2ccccc2F)ccc1=O)NCc1ccc2c(c1)OCO2 | -4.51

Row | Structure (SMILES) | hERG current change (%, negative = inhibition) at 1uM [%]
67 | CCOC(=O)C1=C(O)/C(=C/c2cc(OC)c(OC)c(OC)c2)N=C1C | 12.2
68 | CCN(CC)S(=O)(=O)c1cccc(NC(=O)COC(=O)/C=C/c2ccco2)c1 | -2.5
69 | O=C1CN(c2nc(-c3ccccc3)c3ccccc3n2)c2ccccc2N1 | 15.6
70 | CCc1ccc(N2CC(C(=O)Nc3ccc(F)cc3)CC2=O)cc1 (stereo not drawn) | 19.6
71 | CC(C)/C=C/C(=O)N1CCC(N2CCC(C(=O)NCc3ccccn3)CC2)CC1 | 13.1
72 | N#CCCN(C(=O)COC(=O)CCC(=O)c1ccc(F)cc1)c1ccccc1 | 1.38
73 | COc1ccc(Cc2nnc(N/N=C/c3ccc(N(C)C)cc3)[nH]c2=O)cc1OC | 11.5
74 | O=C(/C=C/c1ccc(Cl)cc1)NC(=S)Nc1ccc(NC(=O)c2ccco2)cc1 | 9.58
75 | Cc1ccc(S(=O)(=O)N2CC(C)N(C(=O)N3CCOCC3)C2C)cc1 (stereo not drawn) | 28.2
76 | O=C(N/N=C/c1c[nH]c2c1ccc1ccccc12)c1ccc([N+](=O)[O-])cc1 | 7.89
77 | O=C(O)c1ccc(CNCc2cccc(Oc3ccccc3)c2)cc1 | 10.1
78 | Cc1c(C(=O)N2CCCC2)sc(NC(=O)c2ccco2)c1C#N | 11
79 | C=CCn1cc(C(=O)NCc2ccc(Cl)cc2)c(=O)c2cc(S(=O)(=O)N(CC)CC)ccc21 | 9.81
80 | CC(C)(C)N1C(=O)[C@H]2[C@@H](c3ccc(Br)cc3)N3C(=O)N(c4ccccc4)C(=O)[C@@]3(Cc3ccccc3)[C@H]2C1=O | 1.42
81 | COc1ccc2[nH]c(-c3ccc(C)cc3)cc(=O)c2c1 | 15.7
82 | COc1ccccc1CC(=O)N1CCN(c2ccccc2)CC1 | 15.1
83 | Cc1ccc(-n2c(=O)[nH]c3ncccc3c2=O)cc1 | 14.4
84 | O=C(Cn1nc(C(=O)O)c2ccccc2c1=O)Nc1ccc(F)cc1 | 15.3
85 | Cc1ccc(N(CC(O)Cn2nc(C)cc2C)S(=O)(=O)c2ccc3ccccc3c2)cc1 (stereo not drawn) | 13.7
86 | Cc1ccc(C(=O)N/C(=C/c2ccc(C(C)C)cc2)C(=O)NCCCN2CCOCC2)cc1 | -22
87 | CCC(=O)Nc1nnc(S(=O)(=O)N(C)c2cc(C)cc(C)c2)s1 | 11.6
